{"source": "PubChem BioAssay AID504706", "about": "(National Center for Advancing Translational Sciences (NCATS), 2011)", "note": "Hit rate of the full screen: of about 320,000 compounds, about 200 (0.062%) were called active. The shares of active, inactive and inconclusive entries below differ from those in the screen. The call rests on the fitted dose curve; in most records, active means well fitted activation curve with a large enough effect; inconclusive means small, poorly fitted or top-dose-only effect; inactive means no such curve, though single readings can be large or run the other way. Potencies of inconclusive entries are left out as doubtful fits. Potency means the concentration at half of the fitted maximal effect; tags describe the fitted curve by direction and shape.", "data": [{"assay": "qHTS assay for re-activators of p53 using a Luc reporter; further: nearly all actives have a fitted effect of over 45% in size", "details": "H1299 p53-A138V BP100-luciferase reporter, luminescence, 24 h; series mostly up to 92.2 µM", "summary_of_the_method": "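p53-null H1299 cells stably carrying temperature-sensitive p53-A138V and a BP100-luciferase reporter were pinned with compounds (4-point, 1:5 series) and held 24 hrs at 37 deg C. Luminescence was read 10 min after detection reagent.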", "values": [{"smiles": "NC(=O)c1ccc(-c2noc(-c3ccccc3F)n2)cc1", "Potency": "inconclusive [activator, full curve, poor fit]"}, {"smiles": "COc1ccc(C2N(C(=O)CN3CCOCC3)CCN2S(=O)(=O)c2ccccc2)cc1", "note": "(configuration not stated)", "Potency": "inconclusive [activator, single point]"}, {"smiles": "Cc1ccc(C)c(CNC(=O)Nc2ccccc2)c1", "Potency": "inconclusive [activator, partial curve, poor fit]"}, {"smiles": "Cc1ccc(OCC(=O)O/N=C(\\N)c2ccncc2)cc1C", "Potency": "inconclusive [activator, partial curve, poor fit]"}, {"smiles": "Cc1ccc(C)c(NC(=S)NC(NC(=O)Cc2cccc3ccccc23)C(Cl)(Cl)Cl)c1", "note": "(configuration not stated)", "Potency": "inactive"}, {"smiles": "Cc1cc(C(=O)CSc2ccc3c(c2)OCCO3)c(C)n1C1CC1", "Potency": "inconclusive [activator, partial curve, poor fit]"}, {"smiles": "CC(C)c1cc(Nc2cccc(O)c2)cc(C(C)C)c1O", "Potency": "inactive"}, {"smiles": "CCOC(=O)N1CCC(N2C(=O)c3ccccc3C2Nc2ccc3c(c2)OCCO3)CC1", "note": "(configuration not stated)", "Potency": "inconclusive [activator, partial curve, poor fit]"}, {"smiles": "O=C(Nc1ccc(N2CCN(C(=O)C3CC3)CC2)cc1)c1cccs1", "Potency": "inconclusive [activator, single point]"}, {"smiles": "COc1ccc(NS(=O)(=O)c2ccc3oc(SC(C)C(N)=O)nc3c2)cc1", "note": "(configuration not stated)", "Potency": "inactive"}, {"smiles": "Cn1cc(C(=O)N/N=C/C(Br)=C/c2ccccc2)ccc1=O", "Potency": "inconclusive [activator, single point]"}, {"smiles": "Cc1cc(C(=O)Nc2ccccc2C(=O)O)ccc1NC(=O)COc1cccc(C)c1C", "Potency": "inactive"}, {"smiles": "COC(=O)CSc1nc(COc2ccccc2)nc2ccccc12", "Potency": "inconclusive [activator, partial curve, poor fit]"}, {"smiles": "O=C(N/N=C/c1ccc([N+](=O)[O-])s1)C(O)c1ccccc1", "note": "(configuration not stated)", "Potency": "inconclusive [activator, partial curve, poor fit]"}, {"smiles": "COc1ccc(N=Cc2sc(O)c3ccccc23)cc1", "Potency": "inconclusive [activator, single point]"}, {"smiles": "CC(C)Cn1nc(NC(=O)C2CCCO2)c2cc3ccccc3nc21", "note": "(configuration not stated)", "Potency": "inactive"}, {"smiles": "CCOC(=O)Cc1csc(NC(=O)c2ccc3c(c2)OCO3)n1", "Potency": "inconclusive [activator, partial curve, poor fit]"}, {"smiles": "O=C1c2ccccc2C(=O)C1c1ccc2ccccc2n1", "Potency": "inconclusive [activator, full curve, poor fit]"}, {"smiles": "COCCn1c(C)cc(C(=O)COC(=O)c2ccc(NC(=O)CC#N)cc2)c1C", "Potency": "inconclusive [activator, partial curve, poor fit]"}, {"smiles": "Cc1cccc(N(CC(O)CN2CCOCC2)S(=O)(=O)c2ccccc2)c1", "note": "(configuration not stated)", "Potency": "inconclusive [activator, single point]"}, {"smiles": "O=[N+]([O-])c1ccc2nc(-c3ccc(Cl)cc3)n(OCc3ccccc3)c2c1", "Potency": "inconclusive [activator, partial curve, poor fit]"}, {"smiles": "COc1cccc(OCc2cc(C(=O)N(C)Cc3nc4ccccc4[nH]3)no2)c1", "Potency": "inconclusive [activator, partial curve, poor fit]"}, {"smiles": "O=C(O)CCC(=O)Nc1cccc(-c2nc3ccccc3o2)c1", "Potency": "inconclusive [activator, single point]"}, {"smiles": "CC(=O)c1c(C)[nH]c(C(=O)Nc2cccc(C(F)(F)F)c2)c1C", "Potency": "inconclusive [activator, single point]"}, {"smiles": "COC(=O)c1c(-c2cccnc2)csc1NC(=O)c1ccc2c(c1)OCO2", "Potency": "inconclusive [activator, partial curve, poor fit]"}, {"smiles": "Cc1ccc(S(=O)(=O)N2CCCN(C(=O)c3cc4ccccc4[nH]3)CC2)cc1", "Potency": "inconclusive [activator, partial curve, poor fit]"}, {"smiles": "COc1ccc(-c2csc(NC3=NCCCCC3)n2)cc1", "Potency": "inconclusive [activator, full curve, poor fit]"}, {"smiles": "CCN(CC)S(=O)(=O)c1cc(NC(=O)C(C)N2CCN(c3ccccn3)CC2)ccc1C", "note": "(configuration not stated)", "Potency": "inactive"}, {"smiles": "CCOC(=O)c1cccc(NC(=O)c2ccc3c(c2)OCO3)c1", "Potency": "inactive"}, {"smiles": "Cc1c2c(nc3c(C(=O)NC4CCCC4)cnn13)CCCC2", "Potency": "inactive"}, {"smiles": "Cc1ccc(CNC(=O)C2CCCN2C(=O)Nc2ccc(F)cc2)cc1", "note": "(configuration not stated)", "Potency": "inconclusive [activator, single point]"}, {"smiles": "O=C(CC1CCCCC1)Nc1nc2ccccc2s1", "Potency": "inconclusive [activator, partial curve, poor fit]"}, {"smiles": "Cc1csc2nc(CNC(=O)c3ccco3)cn12", "Potency": "inconclusive [activator, full curve, poor fit]"}, {"smiles": "O=C1CC[C@@H](CN(Cc2ccccn2)Cc2nc(Cc3ccccc3)no2)N1", "Potency": "inactive"}, {"smiles": "Cc1cc(C)c(C#N)c(SCC(=O)Nc2ccc3c(c2)OCO3)n1", "Potency": "inconclusive [activator, full curve, poor fit]"}, {"smiles": "COc1ccc(N2CCN(C(=O)C3CCN(S(=O)(=O)N4CCOCC4)CC3)CC2)cc1", "Potency": "inactive"}, {"smiles": "Cc1ccc(NC(=S)NNC(=O)c2ccccc2OC(F)F)cc1", "Potency": "inconclusive [activator, full curve, poor fit]"}, {"smiles": "O=C(Nc1nc(-c2nc3ccccc3s2)cs1)C1CC1", "Potency": "inconclusive [activator, partial curve, poor fit]"}, {"smiles": "CC12CCC(C/C1=N\\OC(=O)c1ccc(F)cc1)C2(C)C", "note": "(configuration not stated)", "Potency": "inactive"}, {"smiles": "COc1ccc(C(=O)Nc2ccccc2C(=O)NCc2cccnc2)cc1", "Potency": "inactive"}, {"smiles": "CCOc1ccccc1CNC(=O)C1CCCN(c2nnc(C)c3c(C)n(-c4ccccc4)nc23)C1", "note": "(configuration not stated)", "Potency": "inconclusive [activator, partial curve, poor fit]"}, {"smiles": "COc1ccc(C(=O)N(C)Cc2ccon2)cc1OC1CCN(C(C)C)CC1", "Potency": "inconclusive [activator, single point]"}]}]}
